Screen size: about 310,000 compounds; about 2,200 (0.71%) showed an effect of 50% or more. The effect is printed as a negative number. Some of the results follow.
Target: human ether-à-go-go-related gene (hERG) potassium channel (human, UniProt Q12809)
Test: primary screen, population patch clamp on CHO cells stably expressing hERG

human ether-à-go-go-related gene (hERG) potassium channel, sequence (Q12809 whole entry, looked up): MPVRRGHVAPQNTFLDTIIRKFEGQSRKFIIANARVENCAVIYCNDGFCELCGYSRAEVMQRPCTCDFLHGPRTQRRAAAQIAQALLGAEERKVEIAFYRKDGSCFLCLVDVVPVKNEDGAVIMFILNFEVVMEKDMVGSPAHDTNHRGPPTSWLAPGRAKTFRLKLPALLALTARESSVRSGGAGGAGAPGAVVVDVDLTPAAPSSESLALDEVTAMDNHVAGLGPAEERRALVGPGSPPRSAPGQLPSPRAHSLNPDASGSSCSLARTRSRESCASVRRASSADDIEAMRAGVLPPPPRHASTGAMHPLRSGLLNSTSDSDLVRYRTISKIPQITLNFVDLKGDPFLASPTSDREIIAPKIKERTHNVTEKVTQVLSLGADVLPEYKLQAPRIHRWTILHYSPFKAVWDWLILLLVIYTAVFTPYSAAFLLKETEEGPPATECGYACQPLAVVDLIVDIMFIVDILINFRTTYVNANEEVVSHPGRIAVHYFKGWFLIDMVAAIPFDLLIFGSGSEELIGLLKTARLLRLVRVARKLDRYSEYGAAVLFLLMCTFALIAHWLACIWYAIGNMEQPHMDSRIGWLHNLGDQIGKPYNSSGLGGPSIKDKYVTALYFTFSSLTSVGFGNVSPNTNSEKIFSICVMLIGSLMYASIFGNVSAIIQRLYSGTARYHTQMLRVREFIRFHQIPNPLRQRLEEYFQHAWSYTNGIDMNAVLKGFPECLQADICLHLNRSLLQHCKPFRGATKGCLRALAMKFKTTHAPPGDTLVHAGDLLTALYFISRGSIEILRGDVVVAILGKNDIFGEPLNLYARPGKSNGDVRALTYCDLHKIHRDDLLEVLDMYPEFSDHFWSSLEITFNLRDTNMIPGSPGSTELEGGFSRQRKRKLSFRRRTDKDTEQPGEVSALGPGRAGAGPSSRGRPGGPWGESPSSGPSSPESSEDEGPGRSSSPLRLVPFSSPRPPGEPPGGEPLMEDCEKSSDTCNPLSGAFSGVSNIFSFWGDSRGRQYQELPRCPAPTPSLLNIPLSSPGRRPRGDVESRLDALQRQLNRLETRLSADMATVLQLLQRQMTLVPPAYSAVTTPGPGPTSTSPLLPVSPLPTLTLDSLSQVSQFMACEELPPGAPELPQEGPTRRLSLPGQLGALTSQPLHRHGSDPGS

Compared with `Cl.O=C(c1ccccc1)C(CN1CCCC1)c1ccccc1` (centres unmarked), `NC(=O)CSc1nc2ccccc2n1-c1ccccc1` is lower in “hERG current change (%, negative = inhibition) at 1uM” value: 11.6% for the first, -1.86% for the second.

Compared with `C=CCSc1nc(C)cc(/C=C\c2ccccc2)c1C#N`, `CSc1nc(-c2ccccc2)c(C#N)c(=O)n1C` is higher in “hERG current change (%, negative = inhibition) at 1uM” value: -16.7% for the first, 1.7% for the second.

First: CCOC(=O)c1cncn1C(C)c1ccccc1 (centres unmarked)
Second: CCOC(=O)N1CCN(Cc2cn[nH]c2-c2cccc3ccccc23)CC1
The “hERG current change (%, negative = inhibition) at 1uM” value of the first is higher: 11.9% for the first, 8% for the second.

Going from `Cc1ncc(N=Nc2ccc(F)cc2)c(-c2ccc(Cl)cc2)n1` to `Cc1ccc(-c2nc(CCN3C(=O)c4ccccc4C3=O)cs2)cc1`, the “hERG current change (%, negative = inhibition) at 1uM” value falls from 10.8% to 6.2%.

Compared with `COC(=O)C1=C(N)Oc2cc(C)n(Cc3cccnc3)c(=O)c2C1c1ccc(OC)c(OC)c1OC` (centres unmarked), `COc1cc(/C=N/NC(=O)c2cccnc2)ccc1OCC(=O)Nc1ccc(C)cc1` is higher in “hERG current change (%, negative = inhibition) at 1uM” value: 5.08% for the first, 8.89% for the second.

Compared with `CC1CCCCC1NC(=O)COc1ncnc2sccc12` (centres unmarked), `COC(=O)CCc1sc(NC2CCCCC2)nc1-c1ccc(OC)cc1` is higher in “hERG current change (%, negative = inhibition) at 1uM” value: 5.19% for the first, 20.6% for the second.

First: COc1ccccc1-c1nnc(SCC(=O)Nc2ccc(Cl)cc2Cl)o1
Second: COc1ccc(Cl)cc1NC(=O)CN(C)C(=O)c1sc2ccccc2c1Cl
The “hERG current change (%, negative = inhibition) at 1uM” value of the first is lower: 8.14% for the first, 9.53% for the second.

First: CCOC(=O)N1CCC(NC(=O)CCCC(=O)O)CC1
Second: CCOC(=O)c1cnc(SCC(=O)OCC(=O)NC2CCS(=O)(=O)C2)nc1N (centres unmarked)
The “hERG current change (%, negative = inhibition) at 1uM” value of the first is lower: 11.9% for the first, 12.1% for the second.

Going from `COC(=O)c1sc(S(=O)(=O)N2CCN(c3ccccc3)CC2)c(C(=O)OC)c1C` to `Cc1ccccc1NC(=O)NCCCN1CCN(c2ccccc2)CC1`, the “hERG current change (%, negative = inhibition) at 1uM” value falls from -3.8% to -20.3%.

Going from `C=CCn1c(SCC(=O)NC2CCS(=O)(=O)C2)nnc1-c1ccc(Cl)cc1` (centres unmarked) to `O=C(NCCc1ccccn1)C1CCN(S(=O)(=O)c2ccc(Cl)cc2)CC1`, the “hERG current change (%, negative = inhibition) at 1uM” value rises from -2.52% to -1.27%.

Going from `CN(CC(=O)Nc1ccccc1Br)C(=O)c1sccc1-c1ccccc1` to `O=C(Cn1nnc(-c2ccccc2NC(=O)c2cccs2)n1)Nc1ccccc1`, the “hERG current change (%, negative = inhibition) at 1uM” value rises from -0.469% to 6.64%.

Going from `COc1cccc(-c2c(C#N)c(SC)nc3cc(C)nn23)c1` to `Cc1cc(C)c(S(=O)(=O)Cc2ccccc2)c(Cl)n1`, the “hERG current change (%, negative = inhibition) at 1uM” value rises from 5.19% to 9.46%.

Compared with `Cc1cc(C(F)F)n2nc(C(=O)Nc3ccccc3Br)nc2n1`, `O=C(Nc1cccnc1Cl)c1noc2c1CCc1ccccc1-2` is higher in “hERG current change (%, negative = inhibition) at 1uM” value: -0.168% for the first, 12.4% for the second.

Going from `O=C(NC1CCCCC1)C(c1ccccc1)N(Cc1ccco1)C(=O)c1csnn1` (centres unmarked) to `CN(c1ccccc1)S(=O)(=O)c1cccc(C(=O)NC2CCCCC2)c1`, the “hERG current change (%, negative = inhibition) at 1uM” value rises from -5.76% to 8.28%.

First: COc1cccc(CN2C[C@]34C=C[C@@H](C[C@@H]3S2(=O)=O)O4)c1
Second: COc1cccc(NC(=O)CCCN2C(=O)C3CC=CCC3C2=O)c1 (centres unmarked)
The “hERG current change (%, negative = inhibition) at 1uM” value of the first is lower: 7.34% for the first, 9.71% for the second.

First: Cc1cccc(OCC(=O)OC(C)CN2CCCCC2)c1.Cl (centres unmarked)
Second: O=C(COC(=O)c1ccc(Cl)c(S(=O)(=O)N2CCCCC2)c1)NCC1CCCCC1
The “hERG current change (%, negative = inhibition) at 1uM” value of the first is higher: 4.54% for the first, -6.25% for the second.

Compared with `COc1ccc2c(c1)C1=NN(/C(C)=C\C(C)=O)C(c3ccccc3)C1CC2` (centres unmarked), `COc1ccc(S(=O)(=O)N2CCC(C(=O)N[C@@H](C)C(=O)NCc3ccccc3OC)CC2)cc1` is lower in “hERG current change (%, negative = inhibition) at 1uM” value: 7.74% for the first, 6.37% for the second.

Going from `O=[N+]([O-])c1ccc(OC(F)F)c(/C=N/n2cnnc2)c1` to `Cc1nn(S(=O)(=O)c2ccccc2)c(C)c1Sc1ccc([N+](=O)[O-])cc1`, the “hERG current change (%, negative = inhibition) at 1uM” value rises from 1.14% to 5.98%.

Compared with `CSCCC(NC(=O)c1ccc(Cl)cc1)C(=O)OCC(=O)NCc1ccco1` (centres unmarked), `Cc1cccc(C(OC(=O)c2ccco2)C(=O)NCc2ccccc2)n1` (centres unmarked) is lower in “hERG current change (%, negative = inhibition) at 1uM” value: 1.29% for the first, -5.65% for the second.

Compared with `N#Cc1c(SCC(=O)Nc2ccccc2C(F)(F)F)sc2c(O)cc(=O)[nH]c12`, `COC(=O)c1ccc(NC(=O)CSc2nc(C)cc(=O)[nH]2)cc1` is higher in “hERG current change (%, negative = inhibition) at 1uM” value: -0.616% for the first, 7.07% for the second.

First: Cc1ccc(C)c(-n2c(-c3csc(C)c3C)n[nH]c2=S)c1
Second: COc1ccc(-c2ncncc2-c2csc(C)n2)c(O)c1OC
The “hERG current change (%, negative = inhibition) at 1uM” value of the first is higher: 9.24% for the first, 2.46% for the second.

First: COCCCNC(=O)c1cccc(OC)c1OC
Second: CCC1CCCCN1CCCNC(=O)c1ccc(CS(=O)(=O)c2ccccc2OC)o1 (centres unmarked)
The “hERG current change (%, negative = inhibition) at 1uM” value of the first is higher: 14% for the first, 11.9% for the second.

Going from `CC(=O)O[C@H]1C[C@@]2(C)[C@@H](C[C@@H](O)[C@H]3[C@@]4(C)CC[C@@H](O)[C@@H](C)[C@@H]4CC[C@@]32C)/C1=C(\CCC=C(C)C)C(=O)[O-].[Na+]` to `CC1(C)C2CCC(C2)C1C/C=N/NC(N)=S` (centres unmarked), the “hERG current change (%, negative = inhibition) at 1uM” value rises from 5.33% to 8.94%.

First: Cc1ccc(C)c(NC(=O)CCC(=O)N/N=C/c2ccc[nH]2)c1
Second: Cc1ccc2occ(/C=N/NC(=O)[C@@H](N)Cc3ccccc3)c(=O)c2c1.Cl
The “hERG current change (%, negative = inhibition) at 1uM” value of the first is higher: 8.87% for the first, 4.83% for the second.

Going from `COc1ccc(CN2C(=O)c3ccccc3C(/C=N\OCc3ccc(C)cc3)C2=O)cc1` (centres unmarked) to `O=C(N/N=C/c1ccccc1)c1ccc(CN2C(=O)c3cccc4cccc2c34)cc1`, the “hERG current change (%, negative = inhibition) at 1uM” value falls from 7.79% to -0.233%.

First: Cc1c(NC(=O)CN2C(=O)NC3(CCCCC3C)C2=O)cccc1[N+](=O)[O-] (centres unmarked)
Second: O=C(NCc1ccccc1)C1C(=O)N(Cc2ccccc2)C(=O)C1C1(O)CCCC1 (centres unmarked)
The “hERG current change (%, negative = inhibition) at 1uM” value of the first is lower: 6.75% for the first, 14.8% for the second.

Compared with `Cc1ccc(S(=O)(=O)N2CCN(C(=O)c3ccc(Br)o3)CC2)c(C)c1`, `COc1ccc(C(=O)N2CCN(CCCc3ccccc3)CC2)cc1OC.O=C(O)C(=O)O` is lower in “hERG current change (%, negative = inhibition) at 1uM” value: -17.9% for the first, -61.8% for the second.

Compared with `COc1ccc(S(=O)(=O)NCC2CCCN(Cc3ccc(OC)cc3F)C2)cc1` (centres unmarked), `COc1cc(OC)cc(C(=O)NC2CCCN(Cc3ccc(Cl)cc3)C2)c1` (centres unmarked) is higher in “hERG current change (%, negative = inhibition) at 1uM” value: -11.2% for the first, 15% for the second.

Compared with `O=C(COc1ccccc1)Nc1ccc(Cl)c(-c2nc3ncccc3o2)c1`, `c1ccc(Nc2ccnc(Nc3ccccc3)n2)cc1` is lower in “hERG current change (%, negative = inhibition) at 1uM” value: 11.4% for the first, 10.9% for the second.

First: O=C(C[n+]1ccccc1)N/N=C/c1ccc(F)cc1.[Cl-]
Second: COC(=O)c1ccc(NC(=O)CN(C)Cc2cccc(F)c2)cc1
The “hERG current change (%, negative = inhibition) at 1uM” value of the first is higher: 15.9% for the first, 8.68% for the second.

Going from `CC(=O)Nc1cccc(C(=O)OC(C(=O)c2ccc(C)cc2)c2ccccc2)c1` (centres unmarked) to `C/C(=N/NS(=O)(=O)c1ccc(Cl)cc1)c1cccc(NC(=O)c2ccncc2)c1`, the “hERG current change (%, negative = inhibition) at 1uM” value falls from 6.33% to 2.59%.

Going from `CCC(=NCCc1ccccc1)c1c(O)[nH]c(=O)[nH]c1=O` to `CCN(C(=O)CSc1nc2ccccc2o1)c1c(N)n(Cc2ccccc2)c(=O)[nH]c1=O`, the “hERG current change (%, negative = inhibition) at 1uM” value falls from 14.1% to -12.3%.

Compared with `Nc1nc(Cl)cc(N2CCC(c3cc(-c4ccc(Cl)cc4)n[nH]3)CC2)n1`, `O=C(c1c(F)cccc1F)N1CCC(n2nnc3cc(C(F)(F)F)ccc32)CC1` is lower in “hERG current change (%, negative = inhibition) at 1uM” value: 15.8% for the first, 5.01% for the second.

Compared with `CCOC(=O)C1CCN(c2c(NCCN3CCCCC3C)c(=O)c2=O)CC1` (centres unmarked), `CC1CCc2nc(NC(=O)CN3CCN(c4ccccc4)CC3)sc2C1` (centres unmarked) is higher in “hERG current change (%, negative = inhibition) at 1uM” value: -17.5% for the first, -1.35% for the second.

Going from `O=C(NC(=S)Nc1ccc(NC(=O)c2cccs2)cc1)c1ccc([N+](=O)[O-])cc1` to `CC1CN(C(=O)Nc2ccccc2)c2ccccc2-[n+]2ccsc21.[Br-]` (centres unmarked), the “hERG current change (%, negative = inhibition) at 1uM” value rises from 2.85% to 7.17%.

First: O=C1CC(Cc2ccc(Br)cc2)C(=O)N1c1ccccc1 (centres unmarked)
Second: Cc1ccc(N2C(=O)CCSC23C(=O)Nc2ccccc23)cc1 (centres unmarked)
The “hERG current change (%, negative = inhibition) at 1uM” value of the first is higher: 9.69% for the first, -0.447% for the second.

Compared with `O=C(Cc1ccccc1)NC(NNc1ccccc1)(C(F)(F)F)C(F)(F)F`, `C=CCN1C(=O)C(CC(=O)Nc2ccccc2)N(Cc2ccccn2)C1=S` (centres unmarked) is lower in “hERG current change (%, negative = inhibition) at 1uM” value: 9.32% for the first, 1.26% for the second.

Going from `C=CCN(CC=C)C(=O)COn1nnc2ccc(S(=O)(=O)N3CCOCC3)cc21` to `CCOc1ccccc1Nc1nnc(SCC(=O)Nc2cccc(S(=O)(=O)NC3=NCCCCC3)c2)s1`, the “hERG current change (%, negative = inhibition) at 1uM” value rises from 5.05% to 6.99%.

Compared with `S=c1[nH]nc(Cc2noc3ccccc23)n1-c1ccccc1`, `Cc1c(N2C(=O)/C(=C\c3ccccc3O)SC2=S)c(=O)n(-c2ccccc2)n1C` is higher in “hERG current change (%, negative = inhibition) at 1uM” value: 15.2% for the first, 25.3% for the second.

Going from `CCOC(=O)c1c(C)[nH]c(C(=O)OCC(=O)Nc2sccc2C(N)=O)c1C` to `CCOC(=O)c1c(-c2ccc(OCC)cc2)csc1NC(=O)CCN1C(=O)c2ccccc2C1=O`, the “hERG current change (%, negative = inhibition) at 1uM” value rises from 13% to 18.2%.

Going from `O=C(O)C1CC=CCC1C(=O)Nc1ccc(F)c(F)c1` (centres unmarked) to `O=c1c2[nH]c3ccc(F)cc3c2nc2n1CCCS2`, the “hERG current change (%, negative = inhibition) at 1uM” value falls from 25.3% to 6.32%.

Going from `CCn1c(SCC(=O)NCc2ccco2)nc2c1c(=O)n(C)c(=O)n2C` to `CCOc1ccccc1OCCC(=O)OCC(=O)Nc1c(C)nn(-c2ccccc2)c1C`, the “hERG current change (%, negative = inhibition) at 1uM” value falls from 17.1% to 8.83%.

Compared with `COc1cccc(C=NCCCN=Cc2cccc(OC)c2O)c1O`, `CC(C)/C=C/CN1CCCC(N2CCN(c3cccc(Cl)c3)CC2)C1` (centres unmarked) is lower in “hERG current change (%, negative = inhibition) at 1uM” value: 11.2% for the first, -5.91% for the second.
